PubChem BioAssay AID1030 (National Center for Advancing Translational Sciences (NCATS), 2008)
In all, about 220,000 compounds went through this assay and about 16,000 (7.3%) were called active. Inconclusive means that the source gave no clear call. Such entries were picked first, then a sample of the others. Calls come from the whole dose curve; as a rule, active = well fitted inhibition curve with a large enough effect (not every such curve was filed as active); inconclusive = small, poorly fitted or top-dose-only effect, or another doubt; inactive = no such curve, though single readings can be large or run the other way. Potencies of inconclusive entries are doubtful fits and often do not repeat.

Molecular target: Aldehyde dehydrogenase 1A1 (Homo sapiens) (UniProt P00352)
Test: qHTS Assay for Inhibitors of Aldehyde Dehydrogenase 1 (ALDH1A1)
Conditions: Purified ALDH1A1, NADH fluorescence, propionaldehyde substrate; series mostly up to 75.3 µM
Potency is the fitted concentration of half-maximal effect; tags give direction and shape of the fitted curve.

Sequence of UniProt P00352 (P00352 whole entry, looked up): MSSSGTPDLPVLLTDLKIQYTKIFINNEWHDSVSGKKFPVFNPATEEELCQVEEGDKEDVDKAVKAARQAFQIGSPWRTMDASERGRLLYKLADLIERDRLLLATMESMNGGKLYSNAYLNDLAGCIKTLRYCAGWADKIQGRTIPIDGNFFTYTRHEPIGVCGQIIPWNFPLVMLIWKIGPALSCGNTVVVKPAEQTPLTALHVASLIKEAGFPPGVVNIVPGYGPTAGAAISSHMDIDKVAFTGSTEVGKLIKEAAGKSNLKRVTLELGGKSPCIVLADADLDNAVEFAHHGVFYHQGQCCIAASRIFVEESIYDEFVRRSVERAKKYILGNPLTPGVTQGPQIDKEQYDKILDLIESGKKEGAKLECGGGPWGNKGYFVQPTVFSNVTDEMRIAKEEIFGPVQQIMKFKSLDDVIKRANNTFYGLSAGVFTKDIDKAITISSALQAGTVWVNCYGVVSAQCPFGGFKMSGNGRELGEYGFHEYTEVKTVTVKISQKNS

Potency, active:
COc1ccc(CN(C2CCCC2)S(=O)(=O)c2ccc(-n3cnnn3)cc2)cc1OC 1.78 µM, Cc1cccc(NC(=O)Cn2c(=O)n3nc(CCn4nc(C)cc4C)nc3c3ccccc32)c1 14.1 µM, O=C(NCc1ccccn1)C1CCN(Cc2cnn(-c3ccccc3)c2-n2cccc2)CC1 25.1 µM, Cn1cccc1/C=C1\SC(=S)N(Nc2ccccc2)C1=O 3.55 µM, O=C1CC(N2CCN(c3ccccn3)CC2)C(=O)N1c1ccc(Cl)cc1 (stereo not given) 25.1 µM, CCOC(=O)C(=O)C1=C(N2CCOCC2)/C(=C\c2ccc(F)cc2)CC1 12.6 µM, COc1cc(OC)cc(C(=O)NCC(=O)OCC(=O)Nc2ncc(Cl)cc2Cl)c1 25.1 µM, COc1ccc(/C=N/Nc2nc(NCc3ccco3)nc(Nc3ccc(OC)cc3)n2)cc1 11.2 µM, COc1cccc(S(=O)(=O)c2nc(C)c3c(n2)CCC3)c1 6.31 µM, CCN(CC)c1ccc(N=Cc2cc(Br)ccc2O)cc1 7.94 µM, O=[N+]([O-])c1ccc(O)c(/C=N/n2cnnc2)c1 20 µM, COc1cc(/C=N/N2C(=O)CSC2=S)ccc1O 28.2 µM, COc1ccc2c(c1)CCC1C2=NN(/C(C)=C/C(C)=O)C1c1cccc(F)c1 (stereo not given) 28.2 µM, COC(=O)c1cccc(NC(=O)CSc2nnnn2C)c1 14.1 µM, COc1cccc(OCC(=O)NNC(=S)Nc2ccc(Cl)cc2Cl)c1 2 µM

Potency, inconclusive:
O=C(N/N=C\c1cn(-c2ccccc2)nc1-c1ccccc1)c1ccc2c(c1)OCO2 28.2 µM [inhibitor, single point], O=C(Nc1cccnc1Cl)c1ccc(S(=O)(=O)N2CCCCCC2)cc1 39.8 µM [inhibitor, single point], CCOC(=O)Cn1c(=NC(=O)c2sc3ccccc3c2Cl)sc2cc(S(N)(=O)=O)ccc21 17.8 µM [inhibitor, partial curve], Cc1ccc(S(=O)(=O)NCCC(=O)Nc2ccc(Cl)c(Cl)c2)cc1C 44.7 µM [inhibitor, single point], COc1ccc(CCn2nnnc2C(C(C)C)N2CCN(c3ncccn3)CC2)cc1OC (stereo not given) 25.1 µM [inhibitor, partial curve, poor fit], CCc1cc2cc(C)c(C)cc2nc1SCC(=O)NNC(=O)c1ccco1 0.501 µM [inhibitor, full curve], CCNc1ncc2nc(-c3cccs3)c(=O)n(C)c2n1 18.9 µM [inhibitor, partial curve], CCOC(=O)c1c(NC(=O)c2cccs2)sc2c1CC(C)(C)OC2 25.1 µM [inhibitor, partial curve], O=C(CSc1nccn1-c1ccccc1)c1ccc(Cl)cc1 35.5 µM [inhibitor, single point], CCOc1ccccc1Nc1nc2ccccc2n2cnnc12 31.6 µM [inhibitor, partial curve], CN1CCN(c2cc(-c3ccoc3)ncn2)CC1 39.8 µM [inhibitor, single point], O=[N+]([O-])c1cccc(NC(=S)N2CCc3ccccc3C2)c1 28.2 µM [inhibitor, single point], COc1ccc(C2C(C(=O)Nc3cccc(C)n3)c3ccccc3C(=O)N2C)cc1 (stereo not given) 25.1 µM [inhibitor, partial curve], O=C(NC(=S)NNS(=O)(=O)c1ccccc1)c1cccnc1 35.5 µM [inhibitor, single point], CCc1ccc(OCC(=O)N/N=C/c2ccc(OS(=O)(=O)c3ccc(C)cc3)c(OC)c2)cc1 17.8 µM [inhibitor, partial curve], COc1cc(OC)cc(C(=O)Nc2ccc(-c3nc4ccccc4o3)c(O)c2)c1 35.5 µM [inhibitor, single point], COc1ccc(OC)c2c(N)c(C#N)c(C(F)(F)C(F)(F)F)nc12 25.1 µM [inhibitor, single point], COCCN(C(=O)c1ccco1)C(C(=O)NC1CCCC1)c1cccs1 (stereo not given) 31.6 µM [inhibitor, single point], C=CCOc1cccc(C2/C(=C(/O)c3ccc(C)cc3)C(=O)C(=O)N2CCN2CCOCC2)c1 (stereo not given) 20 µM [inhibitor, partial curve, poor fit], O=C(NCC1CCN(S(=O)(=O)c2ccccc2)CC1)Nc1ccc(F)cc1 39.8 µM [inhibitor, single point], CCOC(=O)c1ccccc1NC(=O)N[C@@H](C)C(=O)OC 20 µM [inhibitor, partial curve], COc1cccc(CNc2nc3nc(C)cc(=O)n3[nH]2)c1 39.8 µM [inhibitor, single point], COc1ccc(NC(=O)c2c(NC(=O)CNCc3ccco3)sc3c2CCC3)cc1 7.08 µM [inhibitor, full curve], O=C(NC1CCCCC1)c1ccc(S(=O)(=O)N2CCCC2)cc1 25.1 µM [inhibitor, partial curve, poor fit], Cc1ccc(O)c(/C=N/NC(=O)C2=NNC(c3ccccc3)(c3ccccc3)C2)c1 28.2 µM [inhibitor, single point], O=C(/C=N/NC(=O)c1ccccc1Br)c1ccccc1 31.6 µM [inhibitor, single point], CCOC(=O)C1CCN(C(=O)Nc2ccc3nc(-c4ccco4)c(-c4ccco4)nc3c2)CC1 10 µM [inhibitor, partial curve], Cc1ccc(N(C(C)C(=O)O)S(=O)(=O)c2c(C)n[nH]c2C)cc1 (stereo not given) 28.2 µM [inhibitor, single point], Cc1ccc(N=Cc2cccc(O)c2O)c(C)c1 8.91 µM [inhibitor, partial curve], COc1ccc(CNC(=S)Nc2ccc3nc(N4CCN(C)CC4)cc(C)c3c2)cc1 39.8 µM [inhibitor, single point], O=C(NC(=S)N(Cc1ccccc1)Cc1ccccc1)C1CCCCC1 31.6 µM [inhibitor, partial curve], CCOC(=O)c1c(C)c(/C=N/Nc2ccccc2)n(C)c1C 39.8 µM [inhibitor, single point], COc1ccccc1NC(=O)N(Cc1ccco1)Cc1cc2cc(C)cc(C)c2[nH]c1=O 31.6 µM [inhibitor, single point], COC(=O)C1=CNC=C(C(=O)OC)C1c1cccc(OC)c1 28.2 µM [inhibitor, partial curve], Cc1ccc(-c2csc3nc4c5ccccc5c(NCCCN5CCOCC5)nn4c(=O)c23)cc1 18.9 µM [inhibitor, partial curve, poor fit], N#CC(C(=O)NC1CC1)c1nc2ccccc2nc1N1CCCC1 (stereo not given) 10 µM [inhibitor, partial curve], CN(C(=O)COC(=O)c1ccc(Cl)cc1N)C1CCS(=O)(=O)C1 (stereo not given) 25.1 µM [inhibitor, partial curve], Cc1noc(C)c1CSc1nc2ccccc2s1 39.8 µM [inhibitor, single point]

Potency, inactive:
CCOC(=O)C1=C(N)OC2=C(C(=O)CC(C)(C)C2)C1C1CCCCC1 (stereo not given), O=C(Nc1cnccn1)Nc1ccc(Cl)cc1Cl, CN(C)c1ncc2ncc(=O)n(C3CC3)c2n1, CCN(C(=O)COC(=O)c1c(NC(C)=O)sc(C)c1C)C1CCS(=O)(=O)C1 (stereo not given), O=C(CNC(=O)c1ccco1)Nc1ccc(F)cc1, CC(=O)c1oc2ccccc2c1NC(=O)CCCN1C(=O)c2ccccc2C1=O, NC[C@@H](O)c1ccc(O)c(O)c1, O=S(=O)(Cc1noc(-c2ccc(Cl)cc2)n1)Cc1ccco1, COCCNC(=S)N1CCC(NC(=O)Nc2ccc(C)cc2)CC1, Cc1csc(NC(=O)[C@@H]2CCCN2C(=O)c2cccs2)n1, COc1cccc(C2/C(=C(\O)c3c(C)nc4c(C)cccn34)C(=O)C(=O)N2CCCN(C)C)c1 (stereo not given), COCc1c(C(=O)OCc2c(C)noc2C)oc2ccccc12, C=CCNc1nc(Cl)nc(Nc2ccc(OCC)cc2)n1, Cc1cc(C(=O)CSc2nnc(-c3ccco3)o2)c(C)n1-c1ccc2c(c1)OCCO2, CCOC(=O)c1cnc2cc(C)nn2c1C, CC1CC(C)CN(C(=O)C(NS(=O)(=O)c2ccc3c(c2)oc(=O)n3C)C(C)C)C1 (stereo not given), CCN1CCN(C(=O)NC(C(=O)NC2C(=O)N3C2SC(C)(C)C3C(=O)O)c2ccccc2)C(=O)C1=O (stereo not given), CC(=O)c1cccc(NC2c3ncccc3C(=O)N2Cc2ccco2)c1 (stereo not given), COc1cccc(N2C(=O)CC(NNC(=O)c3cccs3)C2=O)c1 (stereo not given), O=C(Nc1c(C(=O)N2CCOCC2)cnn1-c1ccccc1Cl)c1ccco1, CCCCn1cnc(C(=O)OCC)c1N, CCN(CC(=O)NC(C)C)Cc1nc2c(Br)cc(Br)cc2c(=O)[nH]1
